# From publication PMC4336329 (PLoS ONE, 2015)
# Among all 310,000 compounds or so, about 2,200 (0.71%) showed an effect of 50% or more. The effect is printed as a negative number. The list shows a part of the results.
# Biological target: human ether-à-go-go-related gene (hERG) potassium channel (human, UniProt Q12809)
# Assay: primary screen, population patch clamp on CHO cells stably expressing hERG
# human ether-à-go-go-related gene (hERG) potassium channel, sequence (Q12809 whole entry, looked up): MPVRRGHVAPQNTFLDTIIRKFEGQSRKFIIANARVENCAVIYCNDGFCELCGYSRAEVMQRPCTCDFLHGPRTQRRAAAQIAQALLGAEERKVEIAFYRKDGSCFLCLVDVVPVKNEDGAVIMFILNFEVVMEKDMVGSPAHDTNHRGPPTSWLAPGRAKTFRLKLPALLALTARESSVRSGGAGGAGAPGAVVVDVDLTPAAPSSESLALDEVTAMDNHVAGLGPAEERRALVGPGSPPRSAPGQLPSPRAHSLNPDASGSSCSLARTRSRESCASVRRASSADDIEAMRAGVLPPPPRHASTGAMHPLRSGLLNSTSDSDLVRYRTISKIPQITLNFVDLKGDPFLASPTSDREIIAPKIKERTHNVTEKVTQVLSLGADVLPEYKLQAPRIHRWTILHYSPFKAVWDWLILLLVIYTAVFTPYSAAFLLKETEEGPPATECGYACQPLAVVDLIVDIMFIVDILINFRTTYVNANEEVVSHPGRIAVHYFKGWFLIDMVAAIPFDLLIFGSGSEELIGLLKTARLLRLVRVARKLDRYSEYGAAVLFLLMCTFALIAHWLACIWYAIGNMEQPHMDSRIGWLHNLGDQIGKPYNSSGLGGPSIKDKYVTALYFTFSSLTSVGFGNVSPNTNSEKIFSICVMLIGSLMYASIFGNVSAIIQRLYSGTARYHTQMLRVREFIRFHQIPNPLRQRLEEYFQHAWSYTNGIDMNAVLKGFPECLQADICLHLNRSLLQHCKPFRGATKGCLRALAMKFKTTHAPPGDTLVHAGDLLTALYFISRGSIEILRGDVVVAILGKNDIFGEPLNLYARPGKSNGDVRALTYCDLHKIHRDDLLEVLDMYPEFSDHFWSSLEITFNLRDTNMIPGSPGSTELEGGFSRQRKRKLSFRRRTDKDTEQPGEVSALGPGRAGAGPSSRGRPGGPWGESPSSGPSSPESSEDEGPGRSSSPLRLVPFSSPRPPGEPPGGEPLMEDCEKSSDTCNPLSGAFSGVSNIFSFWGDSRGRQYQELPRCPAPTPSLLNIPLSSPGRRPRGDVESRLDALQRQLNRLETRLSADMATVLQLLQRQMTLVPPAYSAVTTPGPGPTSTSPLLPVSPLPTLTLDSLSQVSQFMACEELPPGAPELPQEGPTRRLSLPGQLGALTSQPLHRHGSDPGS
row,Compound,"hERG current change (%, negative = inhibition) at 1uM"
1,O=[N+]([O-])c1cccc(CN2CCN(S(=O)(=O)Cc3ccccc3)CC2)c1,4.75%
2,O=C(CN1CCCCC1)N1CCCc2c1c(=O)oc1ccc(OCc3ccccc3)cc21,-12.3%
3,CCN(CC)S(=O)(=O)c1cccc(C(=O)N/N=C/c2cc(OC)c(O)c(OC)c2)c1,9.53%
4,CC(=O)c1ccc(NS(=O)(=O)Cc2ccccc2)cc1,10.8%
5,CSc1cccc(N2CC(C(=O)NCCN3C(=O)S/C(=C\c4cccnc4)C3=O)CC2=O)c1 (stereo not shown),-21%
6,O=C(COC(=O)C1CCC(=O)N1)Nc1ccccc1Br (stereo not shown),12%
7,COc1ccccc1N1CCN(Cc2cc3c(cc2[N+](=O)[O-])OCO3)CC1,13.7%
8,Cc1nn(-c2ncc(C(F)(F)F)cc2Cl)c(=O)n1-c1c(F)cccc1F,12%
9,S=c1[nH]nc(-c2c[nH]c3ccccc23)o1,14.8%
10,CCOC(=O)N1CCN(S(=O)(=O)c2ccc(C(=O)Nc3nnc(C)o3)cc2)CC1,7.3%
11,O=C(Nc1ccccc1)C1=C[C@@H](c2coc3ccccc3c2=O)C[C@@H](OCCCCO)O1,5.86%
12,C[C@H](O)CC(=O)[O-].[Na+],7.33%
13,COC(=O)c1sc(NC(=O)COc2cccc3ccccc23)nc1C,12.7%
14,CN(C)S(=O)(=O)c1ccc(N2CCCC2)c(C(=O)Nc2cccc(F)c2)c1,-2.24%
15,NC(=O)Cn1c(=O)n(-c2ccccc2)c(=O)c2oc3ccccc3c21,2.38%
16,O=c1c2ccccc2nc(/C=C/c2ccc(Br)cc2)n1CCCO,11.9%
17,Cc1ccc2c(c1)N(CC(=O)NCCCN1CCCCC1)C(=O)c1cccnc1O2,0.911%
18,O=S(=O)(c1ccc2nc(Nc3ccccc3)ccc2c1)N1CCCCC1,8.1%
19,Cc1ccc2c(c1)c(=O)c1c3n2CCN(CC2CO2)C3CC1 (stereo not shown),8.3%
20,O=C(COC(=O)CSc1ccc([N+](=O)[O-])cc1)NCC1CCCO1 (stereo not shown),0.848%
21,Clc1ccc(Nc2nc(-c3cccnc3)cs2)cc1,3.11%
22,COc1ccc(CCNC(=O)CC2SC(=NCCc3ccccc3)NC2=O)cc1OC (stereo not shown),12%

row,Compound,"hERG current change (%, negative = inhibition) at 1uM"
1,Cn1c(=O)n(C)c2cc([N+](=O)[O-])c(N3CCN(C(=O)c4ccc(Cl)cc4)CC3)cc21,-17.7%
2,CS(=O)(=O)N(CC(=O)N1CCC(C(N)=O)CC1)c1ccc(Oc2ccccc2)cc1,-7.56%
3,CCOC(=O)C1(Cc2ccccc2)C(=O)Nc2ccccc21 (stereo not shown),6.8%
4,COc1ccc(C(CNC(=O)COc2ccc(F)cc2Br)N2CCCC2)cc1 (stereo not shown),-6.05%
5,CCOc1cccc(C(=O)Nc2cccc(C(=O)NCC(C)C)c2)c1,-3.66%
6,Cc1ccc(Cn2ccc(NC(=O)c3cc(-c4ccc(F)cc4)on3)n2)cc1,12%
7,Nc1ncc(Br)cc1S(=O)(=O)N1CCCCCC1,15.5%
8,N#CC1(NC(=O)CSc2nnc(Nc3ccccc3F)s2)CCCC1,12.8%
9,CCN(CCCNC(=O)CN1C(=O)COc2ccccc21)c1ccccc1,6.59%
10,CCOCC(O)CSCc1ccc(Cl)cc1 (stereo not shown),0.921%
11,COc1cc(/C=C2/C(=O)N(c3ccc(C(=O)O)cc3)N=C2C)cc(OC)c1O,12.4%
12,CC(Sc1nc2ncc(Cl)cc2[nH]1)C(=O)c1c(N)n(C)c(=O)n(C)c1=O (stereo not shown),7.56%
13,CCCCCC(C)NC(=O)c1ccoc1C (stereo not shown),-8.48%
14,CC(C)n1ncc2c(C(=O)Nc3cccc(C#N)c3)cc(C3CC3)nc21,-9.89%
15,COC(Cn1cc(C)c(=O)[nH]c1=O)OC,13.7%
16,Cc1ccc(C2C(C#N)=C(N)OC3=C2C(=O)CCC3)s1 (stereo not shown),14.8%
17,FC(F)(F)c1ccc(Cl)c(NC(=S)N/N=C/c2ccccc2Cl)c1,12.1%
18,CCn1c(CNC(=O)Cc2ccc(OC)cc2)nnc1SCC(=O)c1ccc(Br)cc1,-4.68%
19,COc1cc2[nH]c(=O)n(CCCCCC(=O)NCCc3c[nH]c4ccccc34)c(=O)c2cc1OC,6.66%
20,Cc1ccc(NC(=O)OCCNC(=O)OC(C)C)cc1,4.7%
21,CCOC(=O)C1=C(CSc2nc3ccccc3s2)NC(=O)NC1c1cc(C)ccc1C (stereo not shown),4.72%
22,CN(C(=O)CN1C(=O)NC(C)(CCc2ccccc2)C1=O)c1ccccc1 (stereo not shown),21.5%

row,Compound,"hERG current change (%, negative = inhibition) at 1uM"
1,COc1ccc(CNc2ncnc3cc(OC)c(OC)cc23)cc1OC,23.7%
2,O=P(c1ccc2c(c1)OCCO2)(N1CCOCC1)N1CCOCC1,18.2%
3,COc1ccc(C2/C(=C(\O)c3ccc(OC)c(Cl)c3)C(=O)C(=O)N2CCN(C)C)cc1 (stereo not shown),12.2%
4,Cc1ccccc1Oc1ccc(S(=O)(=O)NCCC(=O)O)cc1,17.3%
5,Cc1ccccc1C(=O)Nc1cc(NC(=O)c2ccccc2C)cc(C(=O)O)c1,14%
6,Cc1cccc(NS(=O)(=O)c2c(C)nc3scc(C)n3c2=O)c1,-1.52%
7,O=C(Cn1c2ccccc2c(=O)c2ccccc21)Nc1cccc(F)c1,12.8%
8,COC(=O)c1ccc2[nH]c3cccc(/C(=C/c4ccccc4)c4ccccc4)c3c2c1,11%
9,O=C(C1=C[C@@H](c2ccccc2)C[C@@H](OCCCCO)O1)N1CCOCC1,8.55%
10,Cc1ccc(NC(=O)c2cnc(SCC(=O)NCC3CCCO3)n(C)c2=O)cc1C (stereo not shown),-8.96%
11,CCN(CC)C(=O)c1ccc(NC(=O)c2c(C)noc2C)cc1,4.43%
12,COCCCNC(=O)CSc1nc2ccccc2c(=O)n1Cc1ccc2c(c1)OCO2,11.6%
13,COc1ccc(CNC(=O)COC(=O)c2c(NC(C)=O)sc(C)c2C)cc1,8.4%
14,COC(=O)CN1C(=O)C(O)(CC(=O)c2ccc(C)cc2)c2cc(Br)ccc21 (stereo not shown),-3.95%
15,Cc1ccn2c(=O)nc(SCC(=O)NCc3ccco3)nc2c1,5.38%
16,CCOC(=O)c1c(C)oc2c1c(CN1CCN(C(=O)OCC)CC1)c(O)c1ccccc12,10.7%
17,CCOC(=O)c1cnc2c([N+](=O)[O-])cnn2c1C,8.79%
18,CC[n+]1c(-c2ccccc2)csc1Nc1c(C)n(C)n(-c2ccccc2)c1=O.[Br-],8.62%
19,COCCn1c(SCC(=O)N2CCc3ccccc32)nc2c(c1=O)SC(C)C2 (stereo not shown),-2.7%
20,COc1c(C)cc(Br)cc1C(=O)Nc1ccc(N2CCN(S(C)(=O)=O)CC2)cc1,12.5%
21,O=c1nc2c(-c3ccccc3F)n[nH]n2c2ccccc12,15.9%
22,Cc1cccc(-n2ncc3c(N4CC(C)CC(C)C4)ncnc32)c1 (stereo not shown),11%

row,Compound,"hERG current change (%, negative = inhibition) at 1uM"
1,CCc1ccc(C(=O)COC(=O)c2ccccc2OC)cc1,8.55%
2,O=C1CCCC(O)=C1C1C2=C(CCCC2=O)Oc2ccccc21 (stereo not shown),2.89%
3,Cc1ccc(/C=N/NC(=O)C[n+]2ccccc2)s1.[Cl-],15.7%
4,CN(C)/C=C1\C=C2C(=O)c3ccccc3N2C1=O,12.6%
5,O=[N+]([O-])c1cc2c(c(CSc3nnc(Nc4ccccc4)s3)c1)OCOC2,5.06%
6,COc1ccccc1CN1CCN(C(=O)c2ccncc2)CC1,14.3%
7,O=C(NCc1cccs1)C1CC(=O)N(C2CCCC2)C1 (stereo not shown),9.68%
8,COCCn1c(SCC(=O)NC2CC2)nnc1-c1ccc(Cl)cc1,5.3%
9,COc1ccc(N2Cc3ccccc3C2=NC(=O)c2cccc([N+](=O)[O-])c2)cc1,18.8%
10,COc1cc(NC(=O)CSc2ncnc3sc4c(c23)CCCC4)c(C(=O)O)cc1OC,7.01%
11,C=CCc1ccccc1OCC(O)CN1CCN(CCN2C(=O)c3cccc4cccc(c34)C2=O)CC1.Cl (stereo not shown),-35.4%
12,CCN(CC)c1ccc(/C=N/Nc2nc(C)cc(C)n2)cc1,9.14%
13,Cc1cnc(C(=O)Nc2ccccc2-n2cccc2)cn1,-20.5%
14,C=CCSc1nc(C)c(CCC(C)C)c(=O)[nH]1,-3.63%
15,COc1cc(C(=O)Nc2ccc(S(=O)(=O)Nc3nccc(C)n3)cc2)c([N+](=O)[O-])cc1OC,12.6%
16,O=C(c1ccc(Cl)cc1)C12CN3CN(CN(C3)C1)C2,7.73%
17,Cc1ccc(-c2nnc(N(C)C(=O)c3ccncc3)s2)cn1,6.44%
18,O=C(OCc1nc2ccccc2s1)c1ccc([N+](=O)[O-])o1,17.5%
19,CCOc1ccccc1/C=N/NC(=O)c1cc(C(C)C)[nH]n1,10.7%
20,CC(OC(=O)C1CCN(S(=O)(=O)c2ccccc2)CC1)C(=O)Nc1ncc(Cl)cc1Cl (stereo not shown),-30.2%
21,CCCNC(=S)N1CCC(NC(=O)c2cccc(C)c2)CC1,22.2%
22,CCC(C)(C)NC(=O)C(c1cccn1C)N(C(=O)Cn1nnc2ccccc21)c1ccc(OC)cc1 (stereo not shown),10.2%
